Reference: ChEMBL document CHEMBL4888484, “Replenishing the malaria drug discovery pipeline: Screening and hit evaluation of the MMV Hit Generation Library 1 (HGL1) against asexual blood stage Plasmodium falciparum ,using a nano luciferase reporter read-out” (2022)
Hit rate of the full screen: of about 150,000 compounds, about 540 (0.36%) showed an effect of 50% or more. This is one part of the list.

The molecules below were run on Plasmodium falciparum (assay: Primary screen in NF54 nanoGlo assay, in single point, at 2uM, 72h; a lower Z score goes with more inhibition). Settings: timepoint 72 hour.
Assay type: functional, Erythrocyte
In the case of `CC(C)Oc1ncccc1C(=O)N1CC(C)(CO)C1`, the “% Inhibition” value is reported as -1% and the Z score is reported as 0.27.
With `COc1ccc(/C=C/c2nc(-c3ccc(=O)[nH]c3)no2)cc1` the “% Inhibition” value was -8% and the Z score was 1.54.
For `Cc1nccc(NC(=O)N2CC[C@H](C3CCCC3)C2)n1`, the “% Inhibition” value was -9% and the Z score was 1.12.
For `Cc1ccc(CN2CCN(Cc3cccc4c3OCO4)C[C@@H]2CCO)o1`, the “% Inhibition” value was -7% and the Z score was 1.38.
With `COc1ccc(C2CCCN2C(=O)CC(Cn2cnnn2)c2ccc(Cl)cc2)c2ccccc12` (stereo not given) the “% Inhibition” value was 31% and the Z score was -3.48.
In the case of `O=C(CNS(=O)(=O)c1cc(-c2noc(C3CCC3)n2)cs1)N1CCN(c2ccccc2)CC1`, the “% Inhibition” value is reported as -1% and the Z score is reported as 0.08.
With `CCOC(=O)C(F)(F)C1(O)CCN(C(=O)[C@](C)(CC)OC)CC1` the “% Inhibition” value was -5% and the Z score was 0.64.
For `O=C(NCC(=O)N1CCCC1)c1cc(F)cc2[nH]nnc12`, the “% Inhibition” value was -16% and the Z score was 2.09.
With `Cc1nnc(CN(C)CCCNC(=O)OC(C)(C)C)o1` the “% Inhibition” value was -7% and the Z score was 0.89.
For `Cc1ncsc1C(=O)NCc1cn(-c2cccnc2)nn1`, the “% Inhibition” value was 5% and the Z score was -0.96.
With `CN(C)[C@@H]1C[C@H]2C(=O)N[C@@H](CC3CCCCC3)C(=O)N2C1` the “% Inhibition” value was 7% and the Z score was -1.05.
For `CC(C)c1ccc(C(C)NC(=O)C2CC(O)CN2)cc1` (stereo not given), the “% Inhibition” value was -1% and the Z score was 0.14.
For `CC(C)c1noc(OCC(=O)NCc2ccccc2)n1`, the “% Inhibition” value was -5% and the Z score was 0.38.
With `C[C@H](NC1CCCCC1)c1n[nH]c(=O)n1C` the “% Inhibition” value was 2% and the Z score was -0.22.
For `COc1ccc(CCNC(=O)Cn2c(N3CCc4ccccc4C3)nc(C)cc2=O)cc1OC`, the “% Inhibition” value was 3% and the Z score was -0.43.
In the case of `Cc1cccc(S(=O)(=O)[C@H](C#N)c2nc3ccccc3nc2N2CCN(c3ccccc3)CC2)c1`, the “% Inhibition” value is reported as 5% and the Z score is reported as -0.72.
`c1cn(CC2(c3nc(C4CCOCC4)n[nH]3)CC2)cn1` was tested, and the “% Inhibition” value was -5% and the Z score was 1.04.
For `Cc1ccc([C@H]2C(=O)N(C3CCCCC3)CC(=O)N2CCC2=CCCCC2)cc1`, the “% Inhibition” value was -4% and the Z score was 0.55.
With `Nc1[nH]nc(-c2ccc(Br)o2)c1-c1ccc2c(c1)OCO2` the “% Inhibition” value was -2% and the Z score was 0.29.
For `Cc1nc(NC(=O)CCc2nccs2)n(C)n1`, the “% Inhibition” value was -9% and the Z score was 1.26.
With `Cc1ccc2nc(CN3CCN(c4ccc5cn[nH]c5c4)C(=O)C3)cn2c1` the “% Inhibition” value was -9% and the Z score was 1.12.
`Cn1c(=O)c(C(=O)NCc2ccccc2)nc2cccnc21` was tested, and the “% Inhibition” value was -10% and the Z score was 1.54.
For `C=CCn1c(-c2ccccc2Cl)cn2cc(C(=O)NCCO)nc2c1=O`, the “% Inhibition” value was -8% and the Z score was 1.03.
In the case of `CC[C@H](NC(=O)CCn1cccn1)C1CC(O)C1` (stereo not given in full), the “% Inhibition” value is reported as -6% and the Z score is reported as 1.28.
In the case of `CC(C)=C(C)C(=O)Nc1ccc(Cl)c(C#N)c1`, the “% Inhibition” value is reported as -5% and the Z score is reported as 0.77.
For `Cc1c(N[C@H]2C[C@@](C)(O)C2)nn2c(C(F)(F)F)nnc2c1C`, the “% Inhibition” value was -8% and the Z score was 1.3.
For `COc1ccc(NC(=O)CC(=O)N[C@H](CO)Cc2ccc(Cl)cc2)c(OC)c1`, the “% Inhibition” value was -9% and the Z score was 1.8.
For `COc1cccn(CC(=O)N2Cc3ccccc3C2)c1=O`, the “% Inhibition” value was -16% and the Z score was 2.03.
For `O=C(NC1CC1)c1ccccc1NS(=O)(=O)Cc1cc(Cl)cc(Cl)c1`, the “% Inhibition” value was -1% and the Z score was 0.14.
For `Cc1ccc(S(=O)(=O)N2CC(Cc3nncn3C3CCCC3)C2)cc1F`, the “% Inhibition” value was -11% and the Z score was 2.1.
`Cc1nc(-c2ccc(C)c(S(=O)(=O)N3CCc4ccccc43)c2)cs1` was tested, and the “% Inhibition” value was 3% and the Z score was -0.43.
With `COc1ccc(CCOc2nc(-c3ccc(Cl)c(Cl)c3)n(-c3cccc(NC(=O)c4ccccc4F)c3)n2)cc1` the “% Inhibition” value was -1% and the Z score was 0.25.
For `CC[C@](C)(NCC(=O)Nc1cccc(Br)c1)C(F)(F)F`, the “% Inhibition” value was 0% and the Z score was 0.03.
For `CC(=O)Nc1ccc(NC(=O)[C@H](C)Nc2ccc3c(c2)OCCO3)cc1`, the “% Inhibition” value was 1% and the Z score was -0.18.
For `O=C(CN1CCN(c2cccc(Cl)c2)C1=O)NCC(F)(F)F`, the “% Inhibition” value was 24% and the Z score was -2.7.
With `CCN(CC)C(=O)N1C[C@@H](Oc2ccccc2)C[C@H]1C(=O)N1CCOCC1` the “% Inhibition” value was -7% and the Z score was 0.88.
`CCN1CC[C@H](C(=O)N(Cc2cccc(C)c2)C(C)C)C1` was tested, and the “% Inhibition” value was -14% and the Z score was 1.99.
`O=C1CCCc2nc(NC(=O)C3(C(F)(F)F)CCCC3)sc21` was tested, and the “% Inhibition” value was -11% and the Z score was 1.37.
With `COc1ccc(-c2nc(Cn3ccnc3)c(C)o2)c2ccccc12` the “% Inhibition” value was -10% and the Z score was 0.96.
For `Cc1ccc(CCC(C)NC(=O)C(C)n2cncn2)o1` (stereo not given), the “% Inhibition” value was -5% and the Z score was 0.52.
`CCCc1cc2c(cc1NC(=O)c1ccc3ccccc3c1OC)OCO2` was tested, and the “% Inhibition” value was -8% and the Z score was 0.91.
`Cc1ccc(C)c(S(=O)(=O)NCCNC(=O)c2ccnc(C)n2)c1` was tested, and the “% Inhibition” value was -1% and the Z score was 0.19.
For `CCCn1cc(-c2ccncc2)cc1C(=O)N1CCCCCC1`, the “% Inhibition” value was -2% and the Z score was 0.19.
For `CCOc1ccc(S(=O)(=O)NC[C@H]2CCN(C3CC3)C2)c(C)c1`, the “% Inhibition” value was -7% and the Z score was 1.05.
For `COc1cnc(C(=O)N2CCc3[nH]c4ccc(OC(F)(F)F)cc4c3C2)cc1O`, the “% Inhibition” value was 6% and the Z score was -0.82.
With `CCC(C)N(C)C(=O)C(C)NC(=O)C1CCC1` (stereo not given) the “% Inhibition” value was -13% and the Z score was 1.68.
With `Nc1ccc2c(N3CCC(Cc4ccccn4)CC3)ncnc2n1` the “% Inhibition” value was 5% and the Z score was -0.62.
With `O=C(NCCCC1(C2OCCO2)CCOCC1)Nc1cccc(-c2nnco2)c1` the “% Inhibition” value was -6% and the Z score was 0.82.
`Cc1cccc(CS(=O)(=O)Nc2ncn(Cc3ccncc3)n2)c1` was tested, and the “% Inhibition” value was -4% and the Z score was 0.74.
With `Cc1cc(C)nc(N2CCC[C@@]3(CCC(=O)N(CCc4c[nH]cn4)C3)C2)n1` the “% Inhibition” value was -2% and the Z score was 0.49.
In the case of `Cc1cccc(N(C)S(=O)(=O)c2c(-c3ccccc3)csc2C(=O)n2nc(C)cc2C)c1`, the “% Inhibition” value is reported as -3% and the Z score is reported as 0.26.
With `CCN(CC)C(=O)[C@H]1CCCN(c2ncnc3c2sc(=S)n3-c2ccccc2)C1` the “% Inhibition” value was -2% and the Z score was 0.39.
In the case of `CCOc1ccc(-c2cncnc2)cc1C(N)=O`, the “% Inhibition” value is reported as -25% and the Z score is reported as 2.33.
With `Cc1ccc(C)c(OCCN(C)C(=O)CCc2cc3n(n2)CCCNC3)c1` the “% Inhibition” value was -1% and the Z score was 0.1.
For `COc1ccc(C(C)=O)cc1CN(C[C@H]1CCOC1)C1CC1`, the “% Inhibition” value was -4% and the Z score was 0.74.
With `Cc1oc(-c2ccccc2)nc1Cc1noc(Cc2ccc(F)cc2)n1` the “% Inhibition” value was 8% and the Z score was -1.09.
In the case of `Cc1ncc(C(=O)NC2CC2)c(=O)n1CC(=O)Nc1ccccc1Cl`, the “% Inhibition” value is reported as 5% and the Z score is reported as -0.75.
For `C[C@@H]1Oc2ccc(NC(=O)Cc3cnn(-c4ccccc4)c3)cc2NC1=O`, the “% Inhibition” value was -11% and the Z score was 1.7.
For `CN(C)c1nn(C[C@H](O)c2cccc(F)c2)c(=S)s1`, the “% Inhibition” value was -19% and the Z score was 2.64.
`Cc1nc(O)cc(CCNc2nc3c(s2)c(C)nn3C)n1` was tested, and the “% Inhibition” value was 3% and the Z score was -0.66.
`CN(C)CCOc1cc(C(=O)N2Cc3ccccc3C2)ccn1` was tested, and the “% Inhibition” value was -18% and the Z score was 2.01.
In the case of `CCOCCC(=O)N1C[C@H](C)OCC1(C)C`, the “% Inhibition” value is reported as -4% and the Z score is reported as 0.37.
For `CN1CCN([C@@H]2/C(=N\C(C)(C)C)N(c3ccccc3)C(=O)C23CCCCC3)CC1`, the “% Inhibition” value was -34% and the Z score was 3.96.
`CCN1C(=O)C[C@](CC(=O)N(C)Cc2ccc3nccnc3c2)(c2cccc(C(F)(F)F)c2)C1=O` was tested, and the “% Inhibition” value was 15% and the Z score was -1.84.
With `Cc1noc(OCC(=O)NC2CCCC2)n1` the “% Inhibition” value was -8% and the Z score was 1.5.
For `Cc1c(Br)c(C(F)(F)F)nn1CC(=O)N1CC[C@H](c2nc(C3CCOCC3)no2)C1`, the “% Inhibition” value was -14% and the Z score was 1.77.
For `COC[C@@H]1CN(c2cnccn2)C[C@H]1C(=O)NCC(F)(F)F`, the “% Inhibition” value was -12% and the Z score was 1.77.
`CC(C)c1nc(CNC(=O)N2CC[C@H](CS(N)(=O)=O)C2)cs1` was tested, and the “% Inhibition” value was -11% and the Z score was 2.1.
For `CCC(OC1CCCC1)C(=O)N1CCCCC1C(C)C` (stereo not given), the “% Inhibition” value was -8% and the Z score was 1.31.
In the case of `Cc1cccc2sc(OC3CN(S(=O)(=O)c4ccc5c(c4)OCCO5)C3)nc12`, the “% Inhibition” value is reported as -4% and the Z score is reported as 0.49.
With `CCn1c(CC2CCNCC2)nn(C/C=C/c2ccccc2)c1=O` the “% Inhibition” value was -7% and the Z score was 0.98.
For `NC1CCC2(CC1)C[C@@H]2C(=O)NCc1nccc2c1CCCC2` (stereo not given in full), the “% Inhibition” value was 1% and the Z score was -0.26.
In the case of `O=S(=O)(NCCN1CCC(c2cccs2)CC1)C1CC1`, the “% Inhibition” value is reported as 1% and the Z score is reported as -0.17.
`Cc1cnc(C)c(N2CC(O)(c3cnnn3C)C2)n1` was tested, and the “% Inhibition” value was -16% and the Z score was 2.66.
In the case of `N#Cc1cccc(C#N)c1N1CCC[C@H](n2ccc(C(F)(F)F)n2)C1`, the “% Inhibition” value is reported as -11% and the Z score is reported as 1.08.
`O=C(CCCC1CC1)NC[C@H]1CCN(CC(F)F)C1` was tested, and the “% Inhibition” value was -3% and the Z score was 0.65.
`O=C(NC[C@H]1CCCN1c1ccccn1)c1ccncc1` was tested, and the “% Inhibition” value was -8% and the Z score was 1.58.
For `CCOc1ccc(S(=O)(=O)N2CCCN(C)c3nc4ccccc4nc32)cc1`, the “% Inhibition” value was -8% and the Z score was 1.14.
With `C[C@H](NCC1(CO)CC1)c1ccccc1N(C)C` the “% Inhibition” value was -3% and the Z score was 0.33.
For `COC[C@H](C)NCC(=O)NCc1ccc(OC)c(OC)c1`, the “% Inhibition” value was -3% and the Z score was 0.35.
In the case of `COc1cccc(NC(=O)Nc2ccc(N3CC(OC)C3)cc2)c1`, the “% Inhibition” value is reported as -7% and the Z score is reported as 1.09.
`O=C(O)C1CCN(C2CCN(Cc3cnc(NCc4ccccc4)nc3)CC2)CC1` was tested, and the “% Inhibition” value was -7% and the Z score was 0.93.
For `O=C1c2ccccc2C(=O)N1CCn1nc2ccccn2c1=O`, the “% Inhibition” value was -4% and the Z score was 0.36.
In the case of `O=C(NCCc1ccco1)[C@H]1CCCN(C2CCN(Cc3ccccc3)CC2)C1`, the “% Inhibition” value is reported as 0% and the Z score is reported as -0.02.
In the case of `COc1ccc2c(c1)N1CCN(c3ccc(F)cc3)CC1C(C(=O)NC1CCCCC1)C2` (stereo not given), the “% Inhibition” value is reported as -1% and the Z score is reported as 0.15.
